Measurements taken from PubChem BioAssay (Tox21).
Values joined by “and” are separate entries in the source; they are usually repeats but may differ in a detail not shown here. Identical values can stand only once. Inconclusive results, whose numbers are uncertain, are shown with a selection of clear calls. Where the call is inconclusive, the potency comes from a doubtful curve fit. Where a structure was tested more than once in an assay, its records may differ in their call. Active and inactive are the calls of the source. Unless noted, the call rests on the fitted dose curve; in most records, active means well fitted curve in the direction sought with a large enough effect in the repeat runs; inconclusive means weak or mixed curves; inactive means no such curve, though single readings can be large; an effect the other way counts as inactive or inconclusive.

tested on: not listed separately; assay: qHTS assay to identify small molecule antagonists of the androgen receptor (AR) signaling pathway - cell viability counter screen (AID 743033; further: nearly all actives have a fitted effect of over 45% in size); details: AR-bla HEK293 viability, CellTiter-Glo luminescence, 16 h; activity change, negative = cytotoxicity: at 58.5 µM (top of the series)
On the % scale 0 is the no-effect control and ±100 the full control effect; potency means the concentration at half of the fitted maximal effect; tags describe the fitted curve by direction and shape or compound fluorescence and quenching.

Compound	Potency
CCCCCCOc1ccccc1C(N)=O	inconclusive: 6 nM [cytotoxic, full curve, poor fit]
CCC(O)C(C)(C)C (centres undefined)	inactive
CCN(Cc1cccc(S(=O)(=O)O)c1)c1ccc(C(=C2C=CC(=[N+](CC)Cc3cccc(S(=O)(=O)O)c3)C=C2)c2ccccc2S(=O)(=O)[O-])cc1	inconclusive: 12300 nM [cytotoxic, partial curve]
OC[C@H]1O[C@@H](n2cnc3c(=S)nc[nH]c32)[C@H](O)[C@@H]1O	inconclusive: 213 nM [cytotoxic, full curve, poor fit]
C=CC(=C)CCCC(C)(C)OC(C)=O	inactive
CN(Cc1cnc2nc(N)nc(N)c2n1)c1ccc(C(=O)N[C@@H](CCC(=O)O)C(=O)O)cc1	active: 75.6 nM and inconclusive: 19.5 nM [cytotoxic, full curve]

molecular target: Androgen receptor (Homo sapiens) (UniProt P10275); assay: qHTS assay to identify small molecule antagonists of the androgen receptor (AR) signaling pathway (AID 743035; active means well fitted inhibition curve with a large enough effect in the signal ratio in the repeat runs, not every such curve was filed as active; inconclusive means weak or mixed curves, or effect the other way; inactive means no such curve, though single readings can be large or run the other way; the % refers to the signal ratio); details: HEK293 AR-UAS-bla, R1881-stimulated, beta-lactamase FRET, 16 h; activity change, negative = inhibition: at 58.5 µM (top of the series) unless noted
UniProt P10275, sequence (P10275 whole entry, looked up): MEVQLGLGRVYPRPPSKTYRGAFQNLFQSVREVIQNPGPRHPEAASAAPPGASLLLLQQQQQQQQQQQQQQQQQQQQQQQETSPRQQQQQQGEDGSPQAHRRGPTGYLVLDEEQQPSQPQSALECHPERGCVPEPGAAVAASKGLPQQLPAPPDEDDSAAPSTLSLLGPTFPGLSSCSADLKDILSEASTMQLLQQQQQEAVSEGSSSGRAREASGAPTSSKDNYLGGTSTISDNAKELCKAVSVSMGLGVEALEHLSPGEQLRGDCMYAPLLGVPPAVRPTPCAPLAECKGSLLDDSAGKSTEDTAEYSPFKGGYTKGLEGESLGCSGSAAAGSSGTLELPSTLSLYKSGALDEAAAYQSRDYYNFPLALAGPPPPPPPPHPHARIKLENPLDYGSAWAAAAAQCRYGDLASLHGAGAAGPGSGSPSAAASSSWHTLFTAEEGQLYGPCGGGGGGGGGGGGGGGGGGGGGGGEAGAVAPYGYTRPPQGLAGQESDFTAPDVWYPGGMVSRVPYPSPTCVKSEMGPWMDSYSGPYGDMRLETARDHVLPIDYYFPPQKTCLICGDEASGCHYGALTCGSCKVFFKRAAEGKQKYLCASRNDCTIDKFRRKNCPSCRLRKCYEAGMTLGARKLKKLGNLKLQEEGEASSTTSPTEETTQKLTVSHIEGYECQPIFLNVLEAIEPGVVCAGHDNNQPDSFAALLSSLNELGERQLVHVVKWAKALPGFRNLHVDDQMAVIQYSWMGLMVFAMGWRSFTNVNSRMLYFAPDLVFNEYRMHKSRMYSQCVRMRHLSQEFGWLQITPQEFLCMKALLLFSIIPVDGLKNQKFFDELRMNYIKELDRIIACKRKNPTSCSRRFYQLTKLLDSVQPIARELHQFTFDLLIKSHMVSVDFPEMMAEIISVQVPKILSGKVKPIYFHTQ
Summary of the method: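 Cell line: GeneBLAzer AR-UAS-bla GripTite (HEK293). Stimulus: R1881 added after compound. Exposure: 16 h, 37C, 5% CO2. Readout: LiveBLAzer B/G FRET fluorescence after 2 h at room temperature.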

Compound	Potency	activity change, negative = inhibition
COC(=O)Nc1nc2ccc(C(=O)c3ccccc3)cc2[nH]1	inconclusive: 0.323 µM [falling, full curve]	–
C[C@@H](O[C@H]1OCCN(Cc2n[nH]c(=O)[nH]2)[C@H]1c1ccc(F)cc1)c1cc(C(F)(F)F)cc(C(F)(F)F)c1	inconclusive: 26.8 µM [falling, single point]	–
CN1CC[C@H](c2c(O)cc(O)c3c(=O)cc(-c4ccccc4Cl)oc23)[C@H](O)C1	inconclusive: 2.13 µM [rising, full curve, poor fit]	–
O=C1Cc2ccccc2N1c1c(Cl)cccc1Cl	active: 54.9 µM	–
C=CC(=C)CCCC(C)(C)OC(C)=O	inactive	–
CN(Cc1cnc2nc(N)nc(N)c2n1)c1ccc(C(=O)N[C@@H](CCC(=O)O)C(=O)O)cc1	inconclusive: 27.5 µM [rising, partial curve]	inconclusive: 20.7%

molecular target: Androgen receptor (Homo sapiens) (UniProt P10275); assay: qHTS assay to identify small molecule agonists of the androgen receptor (AR) signaling pathway (AID 743036; active means well fitted activation curve with a large enough effect in the signal ratio in the repeat runs, with a control signal flat, not every such curve was filed as active; inconclusive means weak or mixed curves, or effect the other way; inactive means no such curve, though single readings can be large or run the other way; the % refers to the signal ratio); details: HEK293 AR-UAS-bla GripTite, beta-lactamase FRET ratio, 16 h; activation: at 62.4 µM (top of the series) unless noted
Summary of the method: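 HEK293 cells stably carrying a UAS-driven beta-lactamase reporter (GeneBLAzer AR-UAS-bla-GripTite) were plated at 2,000 cells/well, rested 4 h at 37C, then exposed to compounds in DMSO for 16 h. LiveBLAzer B/G FRET substrate was added for 2 h at room temperature; fluorescence read.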

Compound	activation	Potency
COC(=O)Nc1nc2ccc(C(=O)c3ccccc3)cc2[nH]1	inconclusive: 16.7% [at 29.2 µM]	–
OC(CCN1CCCC1)(c1ccccc1)C1CCCCC1 (centres undefined)	–	inactive
CN1CC[C@H](c2c(O)cc(O)c3c(=O)cc(-c4ccccc4Cl)oc23)[C@H](O)C1	inconclusive: -20.3%	–
O=C1Cc2ccccc2N1c1c(Cl)cccc1Cl	–	inconclusive: 0.49 µM [activator, single point]
C=C(C)[C@@H]1CCC2=CCC[C@@H](C)[C@]2(C)C1	–	inactive
CN(Cc1cnc2nc(N)nc(N)c2n1)c1ccc(C(=O)N[C@@H](CCC(=O)O)C(=O)O)cc1	–	inactive and inconclusive: 54.9 µM [activator, single point]

tested on: not listed separately; assay: qHTS assay to identify small molecule antagonists of the androgen receptor (AR) signaling pathway using the MDA cell line - cell viability counter screen (AID 743041; further: nearly all actives have a fitted effect of over 45% in size); details: MDA-kb2 viability, CellTiter-Fluor, 16 h, cells co-treated with R1881 androgen agonist; viability change, negative = cytotoxic: at 70.3 µM (top of the series) unless noted
Summary of the method: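 MDA-kb2 AR-luc human breast carcinoma cells (MMTV-luciferase, AR/GR responsive) were treated with compounds plus R1881 agonist for 16 h at 37 °C. Viability was read as CellTiter-Fluor fluorescence in the same wells as the reporter assay.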

Compound	Potency	viability change, negative = cytotoxic
C[C@@H](O[C@H]1OCCN(Cc2n[nH]c(=O)[nH]2)[C@H]1c1ccc(F)cc1)c1cc(C(F)(F)F)cc(C(F)(F)F)c1	inconclusive: 33.5 µM [cytotoxic, single point]	–
CC[C@]1(O)C[C@@H]2CN(CCc3c([nH]c4ccccc34)[C@@](C(=O)OC)(c3cc4c(cc3OC)N(C)[C@H]3[C@@](O)(C(=O)OC)[C@H](OC(C)=O)[C@]5(CC)C=CCN6CC[C@]43[C@@H]65)C2)C1	inconclusive: 0.0106 µM [cytotoxic, full curve]	–
O=C(Nc1cccc(Cl)c1)OCC#CCCl	inconclusive: 68.6 µM [cytotoxic, single point]	–
CC(C)(C)C(=O)C1C(=O)c2ccccc2C1=O	inconclusive: 76.2 µM [cytotoxic, partial curve, poor fit] and inconclusive: 68.6 µM [cytotoxic, single point]	–
C=Cc1ccc(S(=O)(=O)O)cc1	inconclusive: 68.6 µM [cytotoxic, single point]	–
CC(C)n1nc(-c2cc3cc(O)ccc3[nH]2)c2c(N)ncnc21	inconclusive: 10.6 µM [cytotoxic, partial curve, poor fit]	–
CCCCCCOc1ccccc1C(N)=O	inconclusive: 31.2 µM [cytotoxic, partial curve, poor fit]	–
CCN(Cc1cccc(S(=O)(=O)O)c1)c1ccc(C(=C2C=CC(=[N+](CC)Cc3cccc(S(=O)(=O)O)c3)C=C2)c2ccccc2S(=O)(=O)[O-])cc1	active: 38.7 µM	–
C=CC(=O)NC(C)(C)CS(=O)(=O)O	–	inconclusive: 20.2%

molecular target: Androgen receptor (Homo sapiens) (UniProt P10275); assay: qHTS assay to identify small molecule antagonists of the androgen receptor (AR) signaling pathway using the MDA cell line (AID 743042; further: nearly all actives have a fitted effect of over 55% in size); details: MDA-kb2 AR-luc, MMTV luciferase, R1881 antagonist, 16 h; series mostly up to 70.3 µM
Summary of the method: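 MDA-kb2 cells (human breast carcinoma, stably carrying an MMTV-luciferase reporter responsive to AR and GR) were plated at 3,000 cells/well and preincubated 5 hr at 37C, then given compound plus R1881 agonist for 16 h. ONE-Glo luminescence was read.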

Compound	Potency
C[C@@H](O[C@H]1OCCN(Cc2n[nH]c(=O)[nH]2)[C@H]1c1ccc(F)cc1)c1cc(C(F)(F)F)cc(C(F)(F)F)c1	inconclusive: 29.8 µM [inhibitor, single point]
OC(CCN1CCCC1)(c1ccccc1)C1CCCCC1 (centres undefined)	inactive
O=C1Cc2ccccc2N1c1c(Cl)cccc1Cl	active: 61.1 µM
C=C(C)[C@@H]1CCC2=CCC[C@@H](C)[C@]2(C)C1	inactive

tested on: not listed separately; assay: qHTS assay to identify small molecule antagonists of the thyroid receptor (TR) signaling pathway - cell viability counter screen (AID 743064); details: GH3.TRE-Luc viability, CellTiter-Fluor, 24 h; activity change, negative = cytotoxic: at 70.3 µM (top of the series) unless noted; further: nearly all actives have a fitted effect of over 50% in size
Summary of the method: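 GH3.TRE-Luc rat pituitary cells carrying a TRE-luciferase reporter were treated with compound plus 1 nM T3 (final) for 23.5 h at 37 °C. Viability was then read in the same wells by CellTiter-Fluor fluorescence after a further 30 min.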

Compound	Potency	activity change, negative = cytotoxic
CCN(CCN)c1cccc(C)c1	inconclusive: 55 µM [cytotoxic, partial curve] and inconclusive: 77 µM [cytotoxic, single point]	–
Nc1ccc2cc3ccccc3cc2c1	inconclusive: 8.78 µM [rising, full curve] and inconclusive: 21.7 µM [rising, full curve]	–
O=C(CCN1CCC(c2ccccc2)C1)c1ccc2c(c1)OCCO2 (centres undefined)	inconclusive: 33.5 µM [cytotoxic, single point]	–
O=S(=O)(Oc1ccc(Cl)cc1Cl)c1ccccc1	inconclusive: 27.8 µM [rising, full curve]	–
OC(CCN1CCCC1)(c1ccccc1)C1CCCCC1 (centres undefined)	inconclusive: 11.4 µM [cytotoxic, partial curve]	–
c1ccc2sc(SN(C3CCCCC3)C3CCCCC3)nc2c1	inconclusive: 27 µM [cytotoxic, single point]	–
O=C(Nc1cccc(Cl)c1)OCC#CCCl	active: 24.3 µM	–
CN1CC[C@H](c2c(O)cc(O)c3c(=O)cc(-c4ccccc4Cl)oc23)[C@H](O)C1	active: 0.211 µM	–
c1ccc(C[n+]2cccc3ccccc32)cc1	inactive	–
CC(C)(C)C(=O)C1C(=O)c2ccccc2C1=O	inconclusive: 68.6 µM [cytotoxic]	–
C=Cc1ccc(S(=O)(=O)O)cc1	active: 9.69 µM	–
CN(C)CCN1C(=O)c2ccccc2N(C)c2ccccc21	inconclusive: 13.3 µM [cytotoxic, full curve, poor fit]	–
CC(C)n1nc(-c2cc3cc(O)ccc3[nH]2)c2c(N)ncnc21	active: 0.106 µM	–
CCCCCCC(=O)c1ccccc1	–	inconclusive: 17.3%
CCO[Si](CC(C)C)(OCC)OCC	inactive	–
Oc1ccc2ccccc2c1N=Nc1ccccc1	active: 54.5 µM	–
COC(=O)/C=C/c1ccccc1	inactive	–
Oc1ccc2c(c1)OCO2	inactive	–
CC(COCC(C)OC(=O)c1ccccc1)OC(=O)c1ccccc1 (centres undefined)	inconclusive: 48.6 µM [rising, partial curve, poor fit]	–
OC[C@H]1O[C@@H](n2cnc3c(=S)nc[nH]c32)[C@H](O)[C@@H]1O	inconclusive: 26.6 µM [cytotoxic, single point]	–
Nc1nc(-c2ccccc2)cs1	inactive	–
CN(Cc1cnc2nc(N)nc(N)c2n1)c1ccc(C(=O)N[C@@H](CCC(=O)O)C(=O)O)cc1	inconclusive: 750 nM [cytotoxic, full curve] and inconclusive: 217 nM [cytotoxic, full curve]	–
